# In the supplement of paper PMC7826260:
# Some of the results follow. One pool of 16,384 single-stranded DNAs met each Rep nickase domain in vitro (3 µM enzyme, 1 h, 37 °C); shown is the middle of each 90-letter strand. The score is log2 (uncut reads / reads without enzyme); uncut sequences lie near 0, cut ones below; no hit call is given. Shares of all reads are compared; uncut strands gain when others are lost, and binding without cutting may add a little.
# Tests used:
# Assay in all cases: uncleaved DNA left, log2 of reads against the no-enzyme library (log2 ratio); higher = less cleavage (more negative = more Rep cleavage of the k-mer); sequences stand for … in CTCGTCCG…ACCGGAGA
# [1] = test system: T1, Rep nickase domain of Muscovy duck circovirus
# T1 sequence (residues 1-111 of Rep, tag left off): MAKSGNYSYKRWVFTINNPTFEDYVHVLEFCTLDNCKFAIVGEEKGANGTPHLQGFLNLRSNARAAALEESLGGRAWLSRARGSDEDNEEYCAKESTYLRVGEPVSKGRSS
# Protocol: (§1)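 A pool of 90-nt single-stranded DNAs with seven random bases just before the constant AC of the nick site (name = the seven bases) was cut by 3 µM recombinant His6-SUMO-tagged Rep nickase domain (300 nM DNA, 50 mM HEPES pH 8.0, 50 mM NaCl, 1 mM MnCl2, 1 h, 37 °C, three replicates). Uncut DNA was amplified and sequenced.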
# [2] = test system: T2, Rep nickase domain of banana bunchy top virus
# T2 sequence (residues 1-94 of Rep, tag left off): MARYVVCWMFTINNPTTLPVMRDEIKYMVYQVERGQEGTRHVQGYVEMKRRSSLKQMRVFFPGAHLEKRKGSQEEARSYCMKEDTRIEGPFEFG
# Protocol: as §1
# [3] = test system: T3, Rep nickase domain of cabbage leaf curl virus
# T3 sequence (residues 1-116 of Rep, tag left off): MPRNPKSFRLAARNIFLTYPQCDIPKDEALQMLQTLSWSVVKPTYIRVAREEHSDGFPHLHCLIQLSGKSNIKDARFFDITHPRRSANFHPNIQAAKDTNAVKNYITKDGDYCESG
# Protocol: as §1
# [4] = test system: T4, Rep nickase domain of chickpea chlorotic dwarf virus
# T4 sequence (residues 1-124 of Rep, tag left off): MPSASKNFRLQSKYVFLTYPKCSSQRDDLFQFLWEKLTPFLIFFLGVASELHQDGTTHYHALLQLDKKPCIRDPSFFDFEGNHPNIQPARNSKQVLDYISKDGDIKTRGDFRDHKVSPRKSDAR
# Protocol: as §1
# [5] = test system: T5, Rep nickase domain of faba bean necrotic yellows virus
# T5 sequence (residues 1-98 of Rep, tag left off): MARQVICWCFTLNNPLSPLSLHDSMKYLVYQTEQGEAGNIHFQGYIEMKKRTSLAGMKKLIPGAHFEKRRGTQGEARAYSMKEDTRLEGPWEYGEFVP
# Protocol: as §1
# [6] = test system: T6, Rep nickase domain of maize striate mosaic virus
# T6 sequence (residues 1-117 of Rep, tag left off): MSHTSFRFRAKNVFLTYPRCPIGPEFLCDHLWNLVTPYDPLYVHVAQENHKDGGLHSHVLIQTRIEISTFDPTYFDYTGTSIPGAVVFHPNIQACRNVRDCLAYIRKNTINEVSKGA
# Protocol: as §1
# [7] = test system: T7, Rep nickase domain of porcine circovirus 2
# T7 sequence (residues 2-116 of Rep, tag left off): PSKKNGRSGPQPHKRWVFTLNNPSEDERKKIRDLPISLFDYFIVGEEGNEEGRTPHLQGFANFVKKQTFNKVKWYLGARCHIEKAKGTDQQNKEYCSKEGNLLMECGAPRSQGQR
# Protocol: as §1
# [8] = test system: T8, Rep nickase domain of tomato golden mosaic virus
# T8 sequence (residues 1-124 of Rep, tag left off): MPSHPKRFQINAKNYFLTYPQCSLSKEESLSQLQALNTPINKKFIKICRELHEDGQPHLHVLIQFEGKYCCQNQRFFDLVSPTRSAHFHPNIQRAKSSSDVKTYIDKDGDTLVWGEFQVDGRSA
# Protocol: as §1
# [9] = test system: T9, Rep nickase domain of tomato yellow leaf curl virus
# T9 sequence (residues 1-136 of Rep, tag left off): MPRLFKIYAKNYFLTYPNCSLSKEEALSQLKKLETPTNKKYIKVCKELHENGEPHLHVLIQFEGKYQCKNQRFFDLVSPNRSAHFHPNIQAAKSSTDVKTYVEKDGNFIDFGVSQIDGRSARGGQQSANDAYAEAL
# Protocol: as §1
# [10] = test system: T10, Rep nickase domain of wheat dwarf virus
# T10 sequence (residues 1-137 of Rep, tag left off): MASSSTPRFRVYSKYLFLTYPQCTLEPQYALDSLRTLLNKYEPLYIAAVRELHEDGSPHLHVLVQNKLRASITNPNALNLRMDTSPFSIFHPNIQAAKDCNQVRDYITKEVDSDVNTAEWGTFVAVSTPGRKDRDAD
# Protocol: as §1
Sequence,uncleaved DNA left (log2) [1],uncleaved DNA left (log2) [2],uncleaved DNA left (log2) [3],uncleaved DNA left (log2) [4],uncleaved DNA left (log2) [5],uncleaved DNA left (log2) [6],uncleaved DNA left (log2) [7],uncleaved DNA left (log2) [8],uncleaved DNA left (log2) [9],uncleaved DNA left (log2) [10]
CTGCTTT,0.118,-0.101,-0.24,-1.92,0.1,-0.781,-0.339,-0.125,-0.0449,-0.0109
CCCCCGT,-0.288,-0.0824,-0.452,-0.894,-0.17,-1.03,-0.276,-0.114,-0.255,-0.251
GATATGC,0.075,-0.058,-0.349,-0.234,-0.0714,-0.894,0.0311,-0.0571,-0.0746,-0.115
TACAAAT,-0.0475,-0.1,-0.937,-2.65,0.0342,-0.661,-2.52,-0.0166,-0.114,-0.00713
GTCGGCA,0.122,0.102,0.382,0.972,-0.0497,1.36,0.0921,0.0596,0.00361,0.134
CCCCGAC,0.077,0.0192,0.205,-0.112,0.138,-0.376,-0.0692,0.0634,-0.0301,0.0344
AACCCCG,-0.0715,0.0163,-0.864,-0.246,-0.0561,-0.801,-0.601,-0.0213,-0.0172,-0.0934
CACGAAT,-0.00695,-0.239,-0.06,-1.49,-0.0388,-0.334,-0.449,-0.23,-0.164,-0.199
CTTCTAT,-0.0166,-0.0788,0.0793,-0.761,0.0642,-0.528,-0.00978,0.102,0.24,0.196
TTCTTTA,0.0438,0.0584,0.191,-0.795,0.188,0.161,-0.212,0.222,0.011,0.0512
TATATCA,0.0941,0.129,0.52,-0.55,0.0203,0.855,-0.0539,0.0268,0.157,0.271
AAGTTCC,-0.177,-0.0509,-0.044,-0.553,-0.0574,-0.0755,-2.89,-0.0476,-0.0518,-0.00406
ATAATAA,0.0275,0.0934,-0.1,-0.447,-0.0286,-0.762,0.0261,0.0109,-0.13,-0.0574
CTATCCC,0.0201,0.0466,-0.00734,-0.137,0.0665,-0.319,0.0176,-0.186,0.00118,0.0668
CAAGTCA,-0.0161,0.112,-0.0706,-1.63,-0.0391,-0.618,-0.025,0.0138,0.109,-0.0403
TCCTCCT,-0.236,-0.094,0.0777,-1.66,0.152,0.191,-1.38,-0.128,-0.0866,-0.0751
ACGGGGT,-0.0261,-0.177,0.191,0.562,-0.106,0.772,0.175,0.0519,-0.0756,-0.0525
GTATAGA,0.146,0.181,0.381,0.825,0.0577,1.2,0.22,0.192,0.121,0.262
GAAAGCT,-0.0194,0.0233,-0.425,-1.42,-0.0515,0.231,-0.0073,-0.00988,-0.081,-0.0773
CGGGGCT,-0.0143,0.0519,0.755,1.58,-0.135,1.98,0.0892,0.0255,0.0335,0.0943

Sequence,uncleaved DNA left (log2) [1],uncleaved DNA left (log2) [2],uncleaved DNA left (log2) [3],uncleaved DNA left (log2) [4],uncleaved DNA left (log2) [5],uncleaved DNA left (log2) [6],uncleaved DNA left (log2) [7],uncleaved DNA left (log2) [8],uncleaved DNA left (log2) [9],uncleaved DNA left (log2) [10]
CGGTGAA,-0.0514,-0.0594,0.125,0.617,-0.0544,1.09,-0.0174,-0.0135,-0.134,-0.0791
GTAAATC,0.138,0.251,0.385,0.943,0.17,1.51,0.121,0.189,0.201,0.105
CCCTTCA,-0.0832,0.0204,0.216,-0.609,-0.0879,-0.14,-0.116,0.00402,0.038,-0.00495
ATTTGCG,-0.171,-0.107,0.335,1.41,-0.0488,1.87,0.0233,-0.137,-0.248,-0.107
CTAACGG,0.0392,0.036,0.455,1.45,0.0237,1.67,0.193,0.18,-0.0302,0.0415
AACGGAA,0.0752,0.011,0.274,1.1,-0.12,1.22,0.127,0.0146,-0.095,0.0794
TAGTAGT,-3.71,-3.4,-3.02,-2.63,-3.27,-1.53,-4.41,-1.02,0.0236,-0.731
TGTATCG,-0.0527,-0.113,-0.932,-0.335,-0.0572,-1.29,0.0687,-0.17,-0.0753,-0.295
GCCACGT,0.0489,0.0515,0.303,0.431,0.0576,0.0761,0.188,0.148,0.00995,0.0978
GCGGACA,-0.0163,0.267,0.937,2.1,0.0935,2.31,0.325,0.0691,0.0527,0.201
TCGTCAT,0.00649,-0.02,0.15,-0.229,-0.127,0.0814,-2.2,-0.138,0.0513,0.0896
AGCCATA,-0.0203,-0.0727,-0.043,-0.102,-0.0907,-0.0897,-0.453,-0.0248,-0.00685,0.0144
TGAAAGC,-0.0596,-0.0817,-0.225,-0.307,-0.0298,-0.855,-0.0285,-0.0337,-0.0741,-0.0712
GGAATGT,0.0468,0.196,0.694,1.74,0.127,1.98,0.228,0.121,0.123,0.14
AAGTGCG,0.0547,-0.0168,-0.139,1.12,0.179,0.924,0.124,-0.00238,0.0918,0.0151
TATTTAG,-0.154,-0.00471,-0.708,-0.683,0.0509,-1.2,0.0222,0.0406,-0.0828,-0.033
GACGCAA,0.107,0.187,0.111,0.463,0.0707,0.597,0.0318,-0.0191,0.082,0.0443
CTATCTG,-0.108,-0.0943,-0.0816,0.192,-0.0815,-0.0444,-0.0287,-0.077,-0.0644,-0.0103
CGAGATA,-0.00897,0.0162,-0.281,-0.469,-0.0554,-0.115,-0.353,0.0213,-0.106,-0.0685
AGACCCC,0.0862,0.113,0.861,1.81,-0.0201,2.32,0.15,0.118,0.0314,0.193

Sequence,uncleaved DNA left (log2) [1],uncleaved DNA left (log2) [2],uncleaved DNA left (log2) [3],uncleaved DNA left (log2) [4],uncleaved DNA left (log2) [5],uncleaved DNA left (log2) [6],uncleaved DNA left (log2) [7],uncleaved DNA left (log2) [8],uncleaved DNA left (log2) [9],uncleaved DNA left (log2) [10]
TTTGCAG,0.0117,-0.0832,-0.779,0.225,-0.0173,-1.05,0.202,0.027,0.0591,-0.0192
CCTGGAC,0.0678,0.0545,0.367,1.1,0.015,1.26,0.216,0.0978,0.0449,-0.0342
ACAAGTT,0.0678,3.74e-05,-0.603,-2.36,-0.0623,-0.806,0.0323,-0.0272,0.0285,-0.071
TGGAACC,0.0295,0.112,0.51,0.93,0.0259,1.35,-0.0592,0.0647,0.222,0.117
TAACGAA,-0.0799,-0.157,-0.675,-1.93,0.0464,-0.853,-0.0468,-0.114,-0.112,-0.0806
CACTGCA,-0.161,-0.0637,-0.683,-1.07,-0.00394,-1.2,-2.15,-0.114,0.0374,-0.195
TGTCAAG,0.000405,-0.0316,-0.566,-0.642,-0.0334,-1.12,0.187,-0.124,0.0751,0.0623
CTAAGGT,0.00345,-0.0474,-1.33,-1.76,-0.0559,1.07,0.0404,-0.037,-0.172,-0.169
ACTAGCA,-0.073,0.0528,-0.799,-0.998,0.0118,-1.18,-0.00312,-0.00517,0.0803,-0.0636
AATCCAA,0.0176,0.0739,-0.00207,-0.349,-0.0091,-0.55,-0.0671,-0.0647,0.0955,0.159
CATTAAT,-3.64,-3.47,-0.767,-2.35,-1.04,-1.01,-3.62,-0.646,0.0195,-0.298
GAATTGT,-0.786,-0.00964,-2.85,-2.23,-0.123,-1.75,-3.22,-1,-0.0545,-1.73
TAGTTTG,-0.00407,-0.109,-0.433,-0.647,0.0235,-1.09,-2.82,0.0163,0.0278,-0.0973
CCTGACC,-0.0232,0.0026,-0.141,0.448,-0.00462,0.79,0.00847,0.0102,-0.206,-0.11
ACATAAG,-0.0273,0.0722,-0.445,0.836,0.0587,0.112,0.112,-0.00887,0.0423,-0.101
CAGGAAC,-0.0334,-0.045,0.0414,0.703,-0.101,0.431,0.245,-0.031,-0.0493,0.156
CCATAAT,-2.99,-0.111,-0.708,-1.98,0.0641,-0.68,-3.37,-0.0876,-0.0412,0.0247
ATTTCAG,-0.0325,-0.0249,-0.864,-0.797,0.0375,-1.16,0.138,-0.0959,0.0849,-0.0542
AGGGGAT,0.102,0.0774,0.323,1.7,0.0909,1.94,0.249,0.151,-0.173,0.0855
AGCGGTT,-0.0996,-0.117,0.0545,0.284,-0.0446,1.24,-0.346,-0.0625,-0.0099,-0.0527
